Data: PubChem BioAssay AID1347165 (National Center for Advancing Translational Sciences (NCATS), 2019)
The campaign covered roughly 220,000 compounds. About 5,700 (2.6%) were called active. Inconclusive results, whose numbers are uncertain, are shown with a selection of clear calls. Calls come from the whole dose curve; as a rule, active = well fitted inhibition curve with a large enough effect; inconclusive = small, poorly fitted or top-dose-only effect; inactive = no such curve, though single readings can be large or run the other way. Potencies beside an inconclusive call are fits to weak or partial responses and may not hold up.

The compounds below were run against Lysine-specific demethylase 5B (Homo sapiens) (UniProt Q9UGL1) (assay: Primary screen for KDM5B Histone Demethylases FDH-coupled qHTS). Conditions: FDH-coupled NADH fluorescence (FDH is formaldehyde dehydrogenase); activity change, negative = inhibition: at 57.7 µM (top of the series) unless noted.
Method in brief: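 Inhibition is measured as reduced NADH fluorescence generation from FDH coupling to formaldehyde release. Truncated KDM5BΔAP at 200 nM final acts on H3K4me3 peptide (12.5 µM in substrate mix) in pH 7.5 HEPES buffer with Tween-20, 30 min, room temperature.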
Note: nearly all actives have a fitted effect of over 70% in size.
Potency is the fitted concentration of half-maximal effect; tags give direction and shape of the fitted curve.
Throughout, for activity change, negative = inhibition: 0% is about no effect.

Sequence of UniProt Q9UGL1 (Q9UGL1 whole entry, looked up, the tested form may be a part): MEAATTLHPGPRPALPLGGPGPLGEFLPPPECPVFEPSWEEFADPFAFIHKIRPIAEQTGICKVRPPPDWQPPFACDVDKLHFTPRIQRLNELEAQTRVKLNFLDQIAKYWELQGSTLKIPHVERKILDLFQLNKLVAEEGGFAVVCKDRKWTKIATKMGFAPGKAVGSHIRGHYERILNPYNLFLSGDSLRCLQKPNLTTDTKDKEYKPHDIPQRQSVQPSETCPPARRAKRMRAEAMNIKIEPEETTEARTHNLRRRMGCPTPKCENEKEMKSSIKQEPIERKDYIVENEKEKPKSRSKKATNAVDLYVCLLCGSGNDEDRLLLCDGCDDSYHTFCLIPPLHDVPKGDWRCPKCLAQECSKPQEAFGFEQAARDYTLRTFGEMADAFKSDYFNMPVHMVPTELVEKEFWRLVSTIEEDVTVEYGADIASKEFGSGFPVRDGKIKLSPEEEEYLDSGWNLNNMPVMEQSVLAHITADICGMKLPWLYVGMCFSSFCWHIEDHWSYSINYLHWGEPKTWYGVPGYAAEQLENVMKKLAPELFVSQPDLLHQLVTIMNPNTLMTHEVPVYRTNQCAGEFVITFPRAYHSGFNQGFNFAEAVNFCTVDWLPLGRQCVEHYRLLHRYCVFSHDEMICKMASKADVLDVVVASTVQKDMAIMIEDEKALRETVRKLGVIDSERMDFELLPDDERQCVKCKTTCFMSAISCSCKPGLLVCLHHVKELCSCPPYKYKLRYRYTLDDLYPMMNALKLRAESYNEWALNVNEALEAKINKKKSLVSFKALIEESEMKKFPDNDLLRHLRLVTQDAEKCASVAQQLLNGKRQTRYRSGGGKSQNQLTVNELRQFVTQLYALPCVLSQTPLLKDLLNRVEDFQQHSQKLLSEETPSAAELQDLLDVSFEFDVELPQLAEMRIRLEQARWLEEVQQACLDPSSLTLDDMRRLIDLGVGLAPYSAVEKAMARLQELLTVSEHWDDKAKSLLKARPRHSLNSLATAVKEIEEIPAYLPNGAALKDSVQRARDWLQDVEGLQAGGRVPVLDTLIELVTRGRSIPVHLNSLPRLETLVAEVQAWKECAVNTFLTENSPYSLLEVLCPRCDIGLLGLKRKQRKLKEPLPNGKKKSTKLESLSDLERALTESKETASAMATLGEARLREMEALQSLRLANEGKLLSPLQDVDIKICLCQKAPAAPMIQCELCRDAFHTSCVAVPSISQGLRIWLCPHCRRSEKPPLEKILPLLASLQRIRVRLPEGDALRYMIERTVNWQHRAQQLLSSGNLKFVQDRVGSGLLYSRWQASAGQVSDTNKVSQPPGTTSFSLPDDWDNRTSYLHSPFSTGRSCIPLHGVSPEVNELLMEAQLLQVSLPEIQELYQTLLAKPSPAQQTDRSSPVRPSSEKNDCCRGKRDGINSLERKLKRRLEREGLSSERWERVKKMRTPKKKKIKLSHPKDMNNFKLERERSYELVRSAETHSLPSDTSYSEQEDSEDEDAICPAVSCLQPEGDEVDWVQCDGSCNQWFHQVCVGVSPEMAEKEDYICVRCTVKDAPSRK

Compound | activity change, negative = inhibition | Potency
COc1ccc(C2C(C(C)=O)=C(O)C(=O)N2c2ccc(C)cc2)cc1 (configuration not stated) | inactive: -1.04% | 
CS(=O)(=O)N(Cc1cccnc1)C1CN(C(=O)c2c[nH]c3ccccc23)C1 | inactive: -4.08% | 
c1ccc(CSc2ncn(-c3nc(N4CCOCC4)nc(N4CCOCC4)n3)n2)cc1 | inactive: 9.75% | 
Cc1ccc(C(=O)NC2CCN(c3cc(-c4ccccc4)[nH]n3)C2)cc1 (configuration not stated) |  | active: 14.1 µM
CCOc1ccc(CNC(=O)CCCn2c(=O)c3cccn3c3cccnc32)cc1 |  | inconclusive: 3.98 µM [inhibitor, partial curve, poor fit]
c1ccc(-c2cnc(Nc3ccc4c(c3)OCCO4)c3c2CCO3)cc1 |  | active: 39.8 µM
CC(C)c1cc(C(=O)NCCc2noc(C3CCCO3)n2)nc2ncnn12 (configuration not stated) |  | inconclusive: 25.1 µM [inhibitor, single point]
CCc1nc(CN2CCC(N3CCCC(C(=O)NCc4ccccn4)C3)CC2)no1 (configuration not stated) |  | inconclusive: 8.91 µM [inhibitor, partial curve, poor fit]
O=C(O)c1cc2c(OCc3ccccc3)cccc2[nH]1 |  | inconclusive: 25.1 µM [inhibitor, partial curve, poor fit]
Cc1nc2cc(NC(C)C(=O)Nc3ccc(C(F)(F)F)cc3)ccc2o1 (configuration not stated) |  | inconclusive: 14.1 µM [inhibitor, partial curve, poor fit]
COc1ccc(CN2CCN(Cc3ccc(Br)cc3)CC2)c(OC)c1OC |  | inconclusive: 2.51 µM [inhibitor, full curve, poor fit]
COc1ccc(-c2nn3c(-c4ccccc4)nnc3c3ccccc23)cc1 | inactive: 2.13% | 
COc1ccc(/C=C/c2nnc(NC(=O)CC(C)C)s2)cc1 |  | inconclusive: 8.91 µM [inhibitor, partial curve, poor fit]
Oc1ccccc1-c1nc2cnccn2c1Nc1ccc(Cl)cc1 |  | inconclusive: 15.8 µM [inhibitor, partial curve, poor fit]
CC(=O)c1cccc(NC(=O)CCn2nc(C)c(S(=O)(=O)N3CCCCC3)c2C)c1 | inactive: -13.6% | 
CCN(C(=O)CSc1nc(CN2CCOCC2)nc2ccccc12)C1CCS(=O)(=O)C1 (configuration not stated) | inactive: 4.65% | 
Cn1cc(C(=O)NCC2CN(C(=O)c3ccc(Oc4ccccc4)cc3)CC23CN(c2ccccc2)C3)cn1 (configuration not stated) | inactive: -30% | 
FC(F)(F)c1cc(-c2ccccc2)nc(SCc2ccccc2Cl)n1 | inactive: 12.4% | 
Cc1cc(N2CCN(C)CC2)nc2ccc(NC(=S)N3CCN(c4cccc(Cl)c4)CC3)cc12 |  | inconclusive: 28.2 µM [inhibitor, partial curve, poor fit]
O=C(NCCc1ccc(Cl)cc1)c1cnc2sc(N3CCCC3)nn2c1=O |  | inconclusive: 2.24 µM [inhibitor, partial curve, poor fit]
O=C(c1cccs1)N1CCCc2cc(NS(=O)(=O)c3cc(F)ccc3F)ccc21 |  | inconclusive: 3.98 µM [inhibitor, full curve, poor fit]

Compound | activity change, negative = inhibition | Potency
CCc1ccccc1NC(=O)C1CCCN(S(=O)(=O)c2ccc3[nH]c(=O)ccc3c2)C1 (configuration not stated) |  | inconclusive: 25.1 µM [inhibitor, partial curve, poor fit]
CCN1c2cc(C(=O)N3CCN(c4ccccn4)CC3)ccc2C(=O)N2CCCCCC21 (configuration not stated) |  | inconclusive: 28.2 µM [inhibitor, partial curve, poor fit]
O=c1c2c(-c3cccs3)csc2nc(CN2CCOCC2)n1CCOc1ccc(F)cc1 |  | inconclusive: 31.6 µM [inhibitor, single point]
c1ccc2sc([C@H]3CCN(Cc4ccc5c(c4)OCO5)C3)nc2c1 |  | inconclusive: 44.7 µM [inhibitor, partial curve, poor fit]
COC(=O)c1ccc(CNC(C)c2cnc(-c3ccncc3)nc2C)cc1 (configuration not stated) |  | inconclusive: 35.5 µM [inhibitor, single point]
CC1=C(C(=O)Nc2ccccc2)C(c2ccc(Cl)cc2Cl)NC(=S)N1 (configuration not stated) |  | inconclusive: 31.6 µM [inhibitor, partial curve, poor fit]
Cc1ccc(NC(=O)c2nc(S(=O)(=O)Cc3ccc(F)cc3)ncc2Cl)cc1C |  | inconclusive: 22.4 µM [inhibitor, partial curve, poor fit]
CCc1ccccc1NC(=O)C(CC)CC | inactive: 18.2% | 
Cc1cccc(C(=O)Nc2ccc3nc(SCC(=O)N4CCCC4)sc3c2)c1 |  | inconclusive: 31.6 µM [inhibitor, partial curve, poor fit]
COc1ccc(N2CCN(c3nc(C(=O)NC4CCCCCC4)cs3)CC2)cc1 | inactive: -9.1% | 
NCCC(=O)N1CCC(n2nccc2NC(=O)Nc2ccccc2Cl)CC1 |  | inconclusive: 12.6 µM [inhibitor, partial curve]
O=C(CN1CCN(C(=O)c2ccccc2-c2ncc(-c3ccccc3)o2)CC1)N1CCCCC1 |  | inconclusive: 25.1 µM [inhibitor, partial curve, poor fit]
Cc1noc2c(NC3CCN(C)CC3)cc(-c3ccccc3)nc12 | inactive: -5.14% [at 86.2 µM] | 
O=C(CCSCc1nc2ccccc2s1)NC1CCCCC1 |  | inconclusive: 39.8 µM [inhibitor, single point]
Cc1ccc(C(=O)N2CCN(Cc3ccc(=O)n(C)c3)CC2)cc1F |  | inconclusive: 14.1 µM [inhibitor, partial curve]
O=C(COc1ccc2ccc(=O)oc2c1)NCC1(N2CCCCC2)CCCCC1 |  | inconclusive: 25.1 µM [inhibitor, partial curve, poor fit]
CCOc1ccccc1C(=O)N1CCC(Oc2ncccc2C(=O)N2CCCCC2)C1 (configuration not stated) | inactive: -6.86% | 
NC1CCCCN(Cc2cc3ccccc3o2)C1 (configuration not stated) | inactive: 7.23% | 
Cc1ccc(-c2cc(C(=O)N3CCCCC3)c3cc(Br)ccc3n2)o1 |  | inconclusive: 25.1 µM [inhibitor, partial curve, poor fit]
Cc1cc(C)c(S(=O)(=O)N2CC(c3nc(Cc4ccccc4)no3)C2)c(C)c1 |  | inconclusive: 22.4 µM [inhibitor, single point]
O=C(NC1CCCC1)NC1CCN(c2nc3ncccc3o2)CC1 |  | active: 35.5 µM
